# From the supplement of paper PMC8728848
# Some of the results follow.
# B1: Epa1-NP-mutant-E227A (Candida glabrata), Q6VBJ0 (protein)
# chain: MILNPALFLNKCVCIYTTLILLLLTNGGYATSSNDISLASKDPTTFPLGCSPDITTPKKGLSMELYSYDFRKKGSYPCWDAAYLDPNYPRTGYKSHRLLAKVDGVTGNINFYYHATKGCTPQLGHLPASYNYPKPLTMTNFTMLLYGYFRPKVTGFHTFTISADDLLFVNFGAGNAFDCCRRDSSADHFGNYQAYAIWGSKTAKDELTVHLDAGVYYPIRLFYNNRAYDGALSFTFKTESNENTVSDFSEYFFSLDDTEEGCPGLISYDSSCASVKTSKIIGIDYHTETPNENLVPITKTIYHLGIPCTGTTTTPLCGSGFYDPLANKCVTINTSSTSSVTKTTSHTTSKEVSFHSSISSQKTLIPKSIPSPYGPIKSQSIPTEMETSSEISSSEYAFSDVISTPSHSPYTKKHSSLNSSSYTSTVIHSLTSYSISQGIFSTSLSEQNITSKSSTDKFSTATSMSNNITQSSIIISQFSTNNENYTTTSMHTSSDKISTETLNNSISTTTSILFSNSSTILKNNTTIISSDKDTHYHPVNPTIVCSTNKTEIICASITQPSISNSNNHWSSSVLKFNSTTVRSTLPSSAGSNETSINVPFSSSTESNTSTSSTSTSNSKMVRSTLPSSAGSNETSISVPFSSSTESNTSTSSTSTSNSKMVRSTLPSSAGSNETSINVPFSSSTESNTSTSSTSTSNSKTVRSTPFSSAGIIMTSLSQRNNKSASSYASSNSKCYNTADSCRKVHSTPSYLLTSSYTSEGVDYDCSLVSTKLKINDTNCVNNKHTTKSCLKTSVTTTIPTLEIKTARKSSSNTIGLHSYPTSSPNKSISSAPIIGYISSFKTIKTASPSYQTSDLTTITTITSLNNPGSTAVENTHESNDKSRKTSSNDISSKHSVIKETKDAVESSNKSHQTNTLKCSSIIIASSSHNSYESLGGTTLTLTLSKVYSPQNNDTLPFLEISEVNPSRTVLPESSKMMQYLTSTEERNKTARNTIATNIVSISTFHFEGEGNAIRMGYTQLLLMLIGIIVMNIGT
# Assays:
# Assay in all cases: glycan array binding signal (z-score within array); higher = stronger binding
# Settings in all cases: glycan notation: IUPAC condensed, linker removed; mutation: E227A
# [1] = target: GlcNAc(a1-6)Gal(b1-4)GlcNAc
# Procedure, shortened: (§1)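 Glycan array data came from 3228 arrays in the Consortium for Functional Glycomics database, and only arrays with an available protein sequence were kept. Glycan names were put into IUPAC-condensed notation, and columns mapping to the same glycan were averaged. The binding signal is a within-array Z-score, averaged across arrays of one protein sequence run at different concentrations or buffers and across linkers. A negative Z-score can be read as non-binding.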
# [2] = target: GlcNAc(b1-2)Gal(b1-3)GalNAc
# Procedure, shortened: as §1
# [3] = target: GlcNAc(b1-2)Man(a1-3)[GlcNAc(b1-2)Man(a1-6)]Man(b1-4)GlcNAc(b1-4)GlcNAc
# Procedure, shortened: as §1
# [4] = target: GlcNAc(b1-2)Man(a1-3)[GlcNAc(b1-2)Man(a1-6)]Man(b1-4)GlcNAc(b1-4)[Fuc(a1-6)]GlcNAc
# Procedure, shortened: as §1
# [5] = target: GlcNAc(b1-2)Man(a1-3)[GlcNAc(b1-4)][GlcNAc(b1-2)Man(a1-6)]Man(b1-4)GlcNAc(b1-4)GlcNAc
# Procedure, shortened: as §1
# [6] = target: GlcNAc(b1-2)Man(a1-3)[GlcNAc(b1-4)][GlcNAc(b1-2)Man(a1-6)]Man(b1-4)GlcNAc(b1-4)[Fuc(a1-6)]GlcNAc
# Procedure, shortened: as §1
# [7] = target: GlcNAc(b1-2)[GlcNAc(b1-4)]Man(a1-3)[GlcNAc(b1-2)Man(a1-6)]Man(b1-4)GlcNAc(b1-4)GlcNAc
# Procedure, shortened: as §1
# [8] = target: GlcNAc(b1-2)[GlcNAc(b1-4)]Man(a1-3)[GlcNAc(b1-4)][GlcNAc(b1-2)Man(a1-6)]Man(b1-4)GlcNAc(b1-4)GlcNAc
# Procedure, shortened: as §1
# [9] = target: GlcNAc(b1-2)[GlcNAc(b1-4)]Man(a1-3)[GlcNAc(b1-4)][GlcNAc(b1-2)[GlcNAc(b1-6)]Man(a1-6)]Man(b1-4)GlcNAc(b1-4)GlcNAc
# Procedure, shortened: as §1
# [10] = target: GlcNAc(b1-2)[GlcNAc(b1-4)]Man(a1-3)[GlcNAc(b1-4)][GlcNAc(b1-2)[GlcNAc(b1-6)]Man(a1-6)]Man(b1-4)GlcNAc(b1-4)[Fuc(a1-6)]GlcNAc
# Procedure, shortened: as §1
# [11] = target: GlcNAc(b1-2)[GlcNAc(b1-6)]Man(a1-6)[GlcNAc(b1-2)Man(a1-3)]Man(b1-4)GlcNAc(b1-4)GlcNAc
# Procedure, shortened: as §1
# [12] = target: GlcNAc(b1-2)[GlcNAc(b1-6)]Man(a1-6)[GlcNAc(b1-2)Man(a1-3)]Man(b1-4)GlcNAc(b1-4)[Fuc(a1-6)]GlcNAc
# Procedure, shortened: as §1
# [13] = target: GlcNAc(b1-2)[GlcNAc(b1-6)]Man(a1-6)[GlcNAc(b1-4)][GlcNAc(b1-2)Man(a1-3)]Man(b1-4)GlcNAc(b1-4)GlcNAc
# Procedure, shortened: as §1
# GlcNAc(b1-3)Fuc = target: GlcNAc(b1-3)Fuc
# Procedure, shortened: as §1
# GlcNAc(b1-3)Gal = target: GlcNAc(b1-3)Gal
# Procedure, shortened: as §1
# [14] = target: GlcNAc(b1-3)Gal(b1-3)GalNAc
# Procedure, shortened: as §1
# GlcNAc(b1-3)Gal(b1-4)Glc = target: GlcNAc(b1-3)Gal(b1-4)Glc
# Procedure, shortened: as §1
# [15] = target: GlcNAc(b1-3)Gal(b1-4)GlcNAc
# Procedure, shortened: as §1
# [16] = target: GlcNAc(b1-3)Gal(b1-4)GlcNAc(b1-2)Man(a1-3)[GlcNAc(b1-3)Gal(b1-4)GlcNAc(b1-2)Man(a1-6)]Man(b1-4)GlcNAc(b1-4)GlcNAc
# Procedure, shortened: as §1
# [17] = target: GlcNAc(b1-3)Gal(b1-4)GlcNAc(b1-2)Man(a1-3)[GlcNAc(b1-3)Gal(b1-4)GlcNAc(b1-2)Man(a1-6)]Man(b1-4)GlcNAc(b1-4)[Fuc(a1-6)]GlcNAc
# Procedure, shortened: as §1
# [18] = target: GlcNAc(b1-3)Gal(b1-4)GlcNAc(b1-2)[GlcNAc(b1-3)Gal(b1-4)GlcNAc(b1-6)]Man(a1-6)[GlcNAc(b1-3)Gal(b1-4)GlcNAc(b1-2)Man(a1-3)]Man(b1-4)GlcNAc(b1-4)GlcNAc
# Procedure, shortened: as §1
# [19] = target: GlcNAc(b1-3)Gal(b1-4)GlcNAc(b1-3)Gal(b1-4)GlcNAc
# Procedure, shortened: as §1
# [20] = target: GlcNAc(b1-3)Gal(b1-4)GlcNAc(b1-3)Gal(b1-4)GlcNAc(b1-2)Man(a1-3)[GlcNAc(b1-3)Gal(b1-4)GlcNAc(b1-3)Gal(b1-4)GlcNAc(b1-2)Man(a1-6)]Man(b1-4)GlcNAc(b1-4)GlcNAc
# Procedure, shortened: as §1
# [21] = target: GlcNAc(b1-3)Gal(b1-4)GlcNAc(b1-3)Gal(b1-4)GlcNAc(b1-2)Man(a1-3)[GlcNAc(b1-3)Gal(b1-4)GlcNAc(b1-3)Gal(b1-4)GlcNAc(b1-2)Man(a1-6)]Man(b1-4)GlcNAc(b1-4)[Fuc(a1-6)]GlcNAc
# Procedure, shortened: as §1
# [22] = target: GlcNAc(b1-3)Gal(b1-4)GlcNAc(b1-3)Gal(b1-4)GlcNAc(b1-2)[GlcNAc(b1-3)Gal(b1-4)GlcNAc(b1-3)Gal(b1-4)GlcNAc(b1-6)]Man(a1-6)[GlcNAc(b1-3)Gal(b1-4)GlcNAc(b1-3)Gal(b1-4)GlcNAc(b1-2)Man(a1-3)]Man(b1-4)GlcNAc(b1-4)[Fuc(a1-6)]GlcNAc
# Procedure, shortened: as §1
# [23] = target: GlcNAc(b1-3)Gal(b1-4)GlcNAc(b1-3)Gal(b1-4)GlcNAc(b1-3)Gal(b1-4)GlcNAc(b1-2)Man(a1-3)[GlcNAc(b1-3)Gal(b1-4)GlcNAc(b1-3)Gal(b1-4)GlcNAc(b1-3)Gal(b1-4)GlcNAc(b1-2)Man(a1-6)]Man(b1-4)GlcNAc(b1-4)GlcNAc
# Procedure, shortened: as §1
# [24] = target: GlcNAc(b1-3)Gal(b1-4)GlcNAc(b1-3)Gal(b1-4)GlcNAc(b1-3)Gal(b1-4)GlcNAc(b1-2)Man(a1-3)[GlcNAc(b1-3)Gal(b1-4)GlcNAc(b1-3)Gal(b1-4)GlcNAc(b1-3)Gal(b1-4)GlcNAc(b1-2)Man(a1-6)]Man(b1-4)GlcNAc(b1-4)[Fuc(a1-6)]GlcNAc
# Procedure, shortened: as §1
# [25] = target: GlcNAc(b1-3)Gal(b1-4)GlcNAc(b1-3)Gal(b1-4)GlcNAc(b1-3)Gal(b1-4)GlcNAc(b1-2)[GlcNAc(b1-3)Gal(b1-4)GlcNAc(b1-3)Gal(b1-4)GlcNAc(b1-3)Gal(b1-4)GlcNAc(b1-6)]Man(a1-6)[GlcNAc(b1-3)Gal(b1-4)GlcNAc(b1-3)Gal(b1-4)GlcNAc(b1-3)Gal(b1-4)GlcNAc(b1-2)Man(a1-3)]Man(b1-4)GlcNAc(b1-4)[Fuc(a1-6)]GlcNAc
# Procedure, shortened: as §1
# [26] = target: GlcNAc(b1-3)Gal(b1-4)GlcNAc(b1-3)Gal(b1-4)GlcNAc(b1-3)Gal(b1-4)GlcNAc(b1-3)Gal(b1-4)GlcNAc(b1-2)Man(a1-3)[GlcNAc(b1-3)Gal(b1-4)GlcNAc(b1-3)Gal(b1-4)GlcNAc(b1-3)Gal(b1-4)GlcNAc(b1-3)Gal(b1-4)GlcNAc(b1-2)Man(a1-6)]Man(b1-4)GlcNAc(b1-4)GlcNAc
# Procedure, shortened: as §1
# [27] = target: GlcNAc(b1-3)Gal(b1-4)GlcNAc(b1-3)Gal(b1-4)GlcNAc(b1-3)Gal(b1-4)GlcNAc(b1-3)Gal(b1-4)GlcNAc(b1-2)Man(a1-3)[GlcNAc(b1-3)Gal(b1-4)GlcNAc(b1-3)Gal(b1-4)GlcNAc(b1-3)Gal(b1-4)GlcNAc(b1-3)Gal(b1-4)GlcNAc(b1-2)Man(a1-6)]Man(b1-4)GlcNAc(b1-4)[Fuc(a1-6)]GlcNAc
# Procedure, shortened: as §1
binder,measurement,setting,value
B1,glycan array binding signal (z-score),[1],0.396
same,glycan array binding signal (z-score),[2],-0.184
same,glycan array binding signal (z-score),[3],-0.191
same,glycan array binding signal (z-score),[4],-0.177
same,glycan array binding signal (z-score),[5],-0.226
same,glycan array binding signal (z-score),[6],-0.194
same,glycan array binding signal (z-score),[7],-0.188
same,glycan array binding signal (z-score),[8],-0.177
same,glycan array binding signal (z-score),[9],-0.19
same,glycan array binding signal (z-score),[10],-0.172
same,glycan array binding signal (z-score),[11],-0.207
same,glycan array binding signal (z-score),[12],-0.165
same,glycan array binding signal (z-score),[13],-0.207
same,glycan array binding signal (z-score),GlcNAc(b1-3)Fuc,-0.185
same,glycan array binding signal (z-score),GlcNAc(b1-3)Gal,-0.221
same,glycan array binding signal (z-score),[14],-0.176
same,glycan array binding signal (z-score),GlcNAc(b1-3)Gal(b1-4)Glc,-0.205
same,glycan array binding signal (z-score),[15],-0.206
same,glycan array binding signal (z-score),[16],-0.172
same,glycan array binding signal (z-score),[17],-0.157
same,glycan array binding signal (z-score),[18],-0.191
same,glycan array binding signal (z-score),[19],-0.198
same,glycan array binding signal (z-score),[20],-0.183
same,glycan array binding signal (z-score),[21],-0.143
same,glycan array binding signal (z-score),[22],-0.163
same,glycan array binding signal (z-score),[23],-0.193
same,glycan array binding signal (z-score),[24],-0.136
same,glycan array binding signal (z-score),[25],-0.17
same,glycan array binding signal (z-score),[26],-0.193
same,glycan array binding signal (z-score),[27],-0.197
